Among all 310,000 compounds or so, about 14,000 (4.5%) showed an effect of 50% or more. Effects have a minus sign here. This is one part of the list.
target: human ether-à-go-go-related gene (hERG) potassium channel (human, UniProt Q12809); test: primary screen, population patch clamp on CHO cells stably expressing hERG
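Further: peak tail current of the secondary pulse compared with the same well before compound.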

Sequence of human ether-à-go-go-related gene (hERG) potassium channel (Q12809 whole entry, looked up): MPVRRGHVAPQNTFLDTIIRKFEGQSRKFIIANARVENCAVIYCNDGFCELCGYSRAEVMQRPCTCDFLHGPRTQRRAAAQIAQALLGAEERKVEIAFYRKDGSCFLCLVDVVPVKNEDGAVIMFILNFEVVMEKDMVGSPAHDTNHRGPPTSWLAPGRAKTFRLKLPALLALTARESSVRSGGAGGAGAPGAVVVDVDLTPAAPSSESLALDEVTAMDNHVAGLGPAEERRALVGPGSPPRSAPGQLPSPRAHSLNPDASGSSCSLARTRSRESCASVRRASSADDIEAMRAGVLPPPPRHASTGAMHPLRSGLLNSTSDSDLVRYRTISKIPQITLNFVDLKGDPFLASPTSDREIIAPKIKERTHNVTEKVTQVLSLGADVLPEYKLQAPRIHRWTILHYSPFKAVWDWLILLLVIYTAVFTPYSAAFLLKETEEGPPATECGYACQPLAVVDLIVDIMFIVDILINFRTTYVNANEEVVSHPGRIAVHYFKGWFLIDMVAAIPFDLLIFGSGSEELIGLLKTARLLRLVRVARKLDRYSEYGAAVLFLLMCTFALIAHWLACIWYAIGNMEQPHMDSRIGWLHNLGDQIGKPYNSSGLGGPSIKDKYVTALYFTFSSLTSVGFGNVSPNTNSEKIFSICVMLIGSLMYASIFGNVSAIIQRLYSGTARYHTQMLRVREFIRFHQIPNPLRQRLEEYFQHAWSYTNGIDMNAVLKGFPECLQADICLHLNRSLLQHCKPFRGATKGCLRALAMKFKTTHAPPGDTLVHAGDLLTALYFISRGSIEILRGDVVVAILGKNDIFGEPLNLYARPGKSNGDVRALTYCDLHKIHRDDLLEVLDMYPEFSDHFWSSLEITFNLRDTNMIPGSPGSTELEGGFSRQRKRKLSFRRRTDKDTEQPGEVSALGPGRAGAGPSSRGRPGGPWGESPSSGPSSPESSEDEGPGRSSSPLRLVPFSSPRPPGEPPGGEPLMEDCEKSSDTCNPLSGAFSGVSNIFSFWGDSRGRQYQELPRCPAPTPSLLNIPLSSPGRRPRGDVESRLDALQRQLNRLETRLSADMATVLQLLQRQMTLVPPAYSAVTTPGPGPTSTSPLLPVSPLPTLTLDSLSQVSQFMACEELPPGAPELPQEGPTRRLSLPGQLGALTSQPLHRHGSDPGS

| SMILES | hERG current change (%, negative = inhibition) at 10uM |
| --- | --- |
| Clc1ccc2nc(-c3ccncc3)cc(-c3ccccc3)c2c1 | 19.9% |
| Cc1ccc(Cl)cc1N1CCN(C(=O)C2CCN(S(C)(=O)=O)CC2)CC1 | -14% |
| Fc1ccc(-c2csc3[n+]2CCS3)cc1.[Br-] | 5.38% |
| COc1cccc(CN(C(=O)c2ccc([N+](=O)[O-])cc2)C2CCS(=O)(=O)C2)c1 (stereo not shown) | -48.9% |
| CC(C)(C)NC(=O)CN(C(=O)CS(=O)CC(=O)Nc1ccc(F)cc1)c1ccc(Cl)cc1 (stereo not shown) | 3.73% |
| O=C(OCC(=O)N(Cc1ccccc1)Cc1ccccc1)c1ccccc1O | 5.67% |
| COc1ccc(OC)c(N(C)S(=O)(=O)c2ccc3c(c2)N(C(C)=O)CCO3)c1 | -3.44% |
| COc1ccc(OC)c(N=c2oc3c(OC)cccc3cc2C(=O)NCc2ccco2)c1 | 10.9% |
| CC(=O)Nc1nc2ccccc2n1CCN1CCOCC1 | 0.217% |
| NC(=O)NCC12CC3CC(CC(C3)C1)C2 | 6.45% |
| Cc1ccc(C2N(c3ccccc3)C(=S)N3CCCN23)cc1 (stereo not shown) | 7% |
| CSc1n[nH]c(=O)n1C1CCCCC1 | 4.83% |
| Cc1ccc(NC(=O)COc2ccccc2C(=O)Nc2ccccc2)cc1Cl | -2.06% |
| CC(=O)c1c(N)c(C#N)c(C)n1-c1ccc(Br)cc1 | 7.87% |
| CC(OC(=O)c1cc(=O)[nH]c2ccccc12)C(=O)NCc1ccccc1 (stereo not shown) | 3.74% |
| CCOC(=O)Cn1c(=O)c(F)cn(Cc2ccc(OC)c([N+](=O)[O-])c2)c1=O | 2.55% |
| COc1cnc(-c2ccccn2)nc1Sc1ccc(Cl)cc1 | -15.5% |
| O=[N+]([O-])c1cccc2ccc(/C=C/c3ccc(Cl)cc3)nc12 | -4.41% |
| COc1cccc(-c2nnn(CC(=O)Nc3cc(OC)c(NC(=O)c4ccco4)cc3OC)n2)c1 | 3.74% |
| O=C(CCN1CCCCC1)Nc1ccccc1 | 32.9% |
| CSc1nnc(-c2ccco2)n1-c1ccccc1 | 2.91% |
| Cc1ccnc2nc(C(=O)NCc3cccs3)nn12 | -0.776% |
| COc1ccc(NC(=O)N2CCCC(CCC(=O)N(C)CCc3ccccn3)C2)cc1 (stereo not shown) | -0.704% |

| SMILES | hERG current change (%, negative = inhibition) at 10uM |
| --- | --- |
| COc1ccc(CCNC(=S)Nc2ccccc2C)cc1 | 2.1% |
| CCC(=O)Nn1c(C2CCC2)nc2ccccc2c1=O | 17.6% |
| CCCCN1C(=O)CC(Sc2ccccc2C(=O)O)C1=O (stereo not shown) | 0.971% |
| CCOC(=O)C1=C(c2ccccc2)OC(N)=C(C#N)C1c1cccnc1 (stereo not shown) | 17.3% |
| CCOc1ccccc1OCCCC(=O)NC1=NCCS1 | 5.49% |
| NC(=O)CCn1c2ccccc2c2ccccc21 | 22% |
| CCc1nc(SCC(=O)NC2CCCC2)c2c(=O)n(C)c(=O)n(C)c2n1 | 6.92% |
| Cc1ccc(NC(=O)C2Cc3ccccc3CN2C(=O)c2ccccc2)cc1Cl (stereo not shown) | 2.92% |
| CN1CCN(S(=O)(=O)c2cccc(C(=O)Nc3ccccc3N3CCCCC3)c2)CC1 | 5.25% |
| CC(OC(=O)Cc1ccc(Br)cc1)C(=O)NC1CCCCC1C (stereo not shown) | -4.65% |
| O=C(CN1C(=O)/C(=C/c2ccc(F)cc2)SC1=S)NC1CCS(=O)(=O)C1 (stereo not shown) | 10.3% |
| Cc1ccc(SCCC(=O)N/N=C/c2ccncc2)cc1 | -9.18% |
| CCOc1cc(CNc2ccc(CNc3ncn[nH]3)cc2)ccc1OCc1ccccc1 | 7.09% |
| COc1ccc(CNS(=O)(=O)c2csc(C(N)=O)c2)cc1OC | 16% |
| COc1cccc(C(=O)CSc2nc3cccnc3n2C)c1 | 4.59% |
| CCC(=O)Nc1cccc(NC(=S)NC(=O)c2ccccc2C)c1 | 2.68% |
| CCOc1ccccc1NC(=O)CSc1cn[nH]n1 | -12.1% |
| Cc1ccc(NC(=O)Cn2nnc(C(=O)NCc3ccc4c(c3)OCO4)c2N)cc1 | 28.6% |
| O=C(COC(=O)c1cccc(Cl)c1Cl)NCCN1C(=O)CSC1=O | -12.4% |
| COC(=O)c1cc(C(=O)N2CCN(c3cccc(C)c3C)CC2)cc([N+](=O)[O-])c1 | -39.6% |
| Cc1cc(C)c(S(=O)(=O)NCc2cn3c(C)csc3n2)cc1C | -7.39% |
| CCOc1ccc(CC(=O)NC2CC(C)(C)N(C)C(C)(C)C2)cc1OCC | 8.47% |
| COC(=O)c1[nH]c2ccc(C)cc2c1NC(=O)c1ccccc1[N+](=O)[O-] | 0.122% |

| SMILES | hERG current change (%, negative = inhibition) at 10uM |
| --- | --- |
| S=C(NCCN1CCCCC1)Nc1ccc(Br)cc1 | -69.1% |
| COc1cc(C(=O)N/N=C/c2ccc(OC(=O)N3CCOCC3)cc2)cc(OC)c1OC | 14.3% |
| O=C(NNc1ccc(O)cc1)c1ccc(Br)cc1 | -12.2% |
| CCOC(=O)c1nc(Nc2ccc(C(C)=O)cc2)c2ccccc2n1 | -2.37% |
| N#Cc1ccc(CSc2nnc3[nH]c(=O)cc(N)n23)cc1 | -5.44% |
| COc1ccc(/C=N/Nc2nnc(Cc3ccc(OC)c(OC)c3)c(=O)[nH]2)cc1OC | 18.9% |
| Cc1nn(-c2ccccc2)cc1C(c1c(N)[nH]c(=S)[nH]c1=O)c1c(N)[nH]c(=S)[nH]c1=O | 37.5% |
| NNC(=O)c1cccn(Cc2ccc(Cl)cc2Cl)c1=O | 4.66% |
| CCCCc1c(C)nc2c(OC)cccc2c1SCC(=O)O | 12.3% |
| Cc1ccc(OCc2nnc(SCC(=O)c3cccc([N+](=O)[O-])c3)n2C)cc1 | -4.83% |
| COc1ccccc1N=c1sc2ccccc2n1C | -17.9% |
| O=C(CN1CCN(c2ccc(C(F)(F)F)cn2)CC1)Nc1ccc2c(c1)OCO2 | -14% |
| COCc1cc(/C=N\NC(=O)COc2ccc(Cl)cc2)ccc1OC | 17.4% |
| CN1CCN(c2nnc(-c3cccs3)c3ccccc23)CC1 | -53.9% |
| CC(C)c1nnc(NC(=O)C2CCN(S(=O)(=O)c3ccc(-n4cnnn4)cc3)CC2)s1 | 16.3% |
| Cc1ccc(S(=O)(=O)N2CCC(C(N)=O)CC2)c(C)c1C | -6.06% |
| Cc1ccc2nc(SC(C)C(=O)N3CC(C)OC(C)C3)[nH]c2c1 (stereo not shown) | 7.59% |
| CC(C)(C)n1nc2c(c1NC(=O)c1cc3ccccc3o1)CSC2 | -12.9% |
| Cc1ccc(NC(=O)c2ccc3c(c2)OCO3)cc1Cl | -2.98% |
| CCN1CCN(C(=O)CCCn2c(C)c3cnn(-c4ccccc4)c(=O)c3c2C)CC1 | 15.6% |
| COc1ccc(C(C)=O)cc1COC(=O)c1ccc2c(c1)OCO2 | 22.2% |
| O=C(c1n[nH]c2ccccc12)N1CCOCC1 | 10.1% |
| CC1=C(C(=O)NC2CC(C)(C)Cc3c2cnn3-c2cccc(F)c2)OCCO1 (stereo not shown) | -43.5% |

| SMILES | hERG current change (%, negative = inhibition) at 10uM |
| --- | --- |
| COc1cc(SC)ccc1C(=O)OCC(=O)NC1CCCC1 | 1.72% |
| Cc1ccc(N2CCN(S(=O)(=O)c3c(C)nc4scc(C)n4c3=O)CC2)c(C)c1 | -2.56% |
| O=C(Nc1cccc(-n2cnnn2)c1)c1ccc(Cl)cc1Cl | 4.58% |
| CCN1C(=O)/C(=C2\Sc3ccccc3N2CC)OC1=S | 21.1% |
| CN(C)CCCN(C(=O)c1sc2ccccc2c1Cl)c1nc2c(F)cccc2s1.Cl | -61.9% |
| O=C(O)CC(SCC(=O)Nc1ccc(S(=O)(=O)N2CCCC2)cc1)C(=O)O (stereo not shown) | 20.4% |
| O=C(CCCc1c[nH]c2ccccc12)N1CCN(c2ccc(N3CCOCC3)nn2)CC1 | -22.2% |
| Cc1cccc(N2CCN(CC(=O)NCc3ccc(Cl)cc3)CC2)c1C | -29.2% |
| COCCCn1c(SCC(=O)NC(C)C)nnc1-c1ccccc1 | -8.87% |
| Cc1cc(C)c(NC(=O)c2cccc(NC(=O)c3ccco3)c2)c(C)c1 | -9.17% |
| O=C(O)CC1S/C(=N/N=C/c2ccccn2)NC1=O (stereo not shown) | 14.7% |
| O=C(Oc1cccccc1=O)c1ccccc1 | -10.2% |
| O=C(COc1cc(Cl)ccc1Cl)Nc1nnc(C2CC2)s1 | 14.4% |
| O=C(O)c1cc(NN=Nc2cccc(S(=O)(=O)O)c2)cc([N+](=O)[O-])c1 | 7.65% |
| CCNC(=O)NC(=O)CSc1nnc(-c2c[nH]c3ccccc23)o1 | 8.44% |
| CCCCN1C(=O)C(NC(=O)c2cccnc2)(C(F)(F)F)C2=C1CC(C)(C)CC2=O (stereo not shown) | 1.83% |
| N#Cc1c(Nc2ccccc2)sc(C(=O)c2ccccc2)c1N | -7.02% |
| NC(=S)NN=C(Cc1ccccc1)Cc1ccccc1 | 3.69% |
| COc1cccc(/C=C2/C(=O)NN(c3ccc(C)c(C)c3)C2=O)c1 | -3.01% |
| Cc1cccc(CCNC(=O)C2CCC(=O)N2Cc2ccc(F)cc2)c1 (stereo not shown) | -6.99% |
| Cc1nnsc1C(=O)Nc1ccccc1Cl | -3.48% |
| NS(=O)(=O)c1ccc(NC(=O)CSC2CCCCC2)cc1 | 3.4% |
